Assay results published in PMC4336329 (PLoS ONE, 2015).
The whole screen tested about 310,000 compounds, of which about 14,000 (4.5%) showed an effect of 50% or more. The effect is printed as a negative number. The list shows a part of the results. Where a SMILES comes first, the peptide text is derived from it. The star is where a group is joined. Cbz = O=C(OCc1ccccc1)*

molecular target: human ether-à-go-go-related gene (hERG) potassium channel (human, UniProt Q12809); experiment: primary screen, population patch clamp on CHO cells stably expressing hERG
Sequence (Q12809 whole entry, looked up): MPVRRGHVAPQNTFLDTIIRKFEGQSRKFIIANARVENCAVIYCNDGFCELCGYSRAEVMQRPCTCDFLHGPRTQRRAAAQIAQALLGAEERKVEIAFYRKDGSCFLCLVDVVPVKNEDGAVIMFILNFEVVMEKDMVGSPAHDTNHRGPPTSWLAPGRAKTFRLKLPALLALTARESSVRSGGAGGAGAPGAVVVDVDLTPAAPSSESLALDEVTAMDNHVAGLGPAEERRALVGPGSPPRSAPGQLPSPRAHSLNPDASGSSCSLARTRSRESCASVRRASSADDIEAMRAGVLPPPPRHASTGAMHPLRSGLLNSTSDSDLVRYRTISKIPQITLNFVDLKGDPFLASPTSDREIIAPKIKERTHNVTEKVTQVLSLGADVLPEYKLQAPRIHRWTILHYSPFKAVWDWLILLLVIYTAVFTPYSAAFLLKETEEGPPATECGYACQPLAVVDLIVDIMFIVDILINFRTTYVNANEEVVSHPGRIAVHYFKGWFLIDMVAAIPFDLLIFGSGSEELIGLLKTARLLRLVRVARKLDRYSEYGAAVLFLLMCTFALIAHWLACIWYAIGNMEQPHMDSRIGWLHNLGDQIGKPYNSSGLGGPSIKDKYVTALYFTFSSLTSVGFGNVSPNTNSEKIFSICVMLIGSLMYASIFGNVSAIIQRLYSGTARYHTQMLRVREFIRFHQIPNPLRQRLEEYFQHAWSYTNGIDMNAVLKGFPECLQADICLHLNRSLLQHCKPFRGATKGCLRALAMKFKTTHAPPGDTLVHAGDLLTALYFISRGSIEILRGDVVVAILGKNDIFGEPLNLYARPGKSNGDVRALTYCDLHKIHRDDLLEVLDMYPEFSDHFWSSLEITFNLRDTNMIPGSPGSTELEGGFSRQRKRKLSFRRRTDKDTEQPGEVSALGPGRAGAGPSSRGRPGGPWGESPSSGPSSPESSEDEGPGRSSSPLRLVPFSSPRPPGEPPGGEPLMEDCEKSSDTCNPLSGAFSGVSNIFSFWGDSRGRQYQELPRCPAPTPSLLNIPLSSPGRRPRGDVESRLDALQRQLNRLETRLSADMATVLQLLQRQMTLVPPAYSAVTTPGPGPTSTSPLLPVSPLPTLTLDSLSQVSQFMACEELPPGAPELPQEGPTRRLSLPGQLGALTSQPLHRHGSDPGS
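Further: peak tail current of the secondary pulse compared with the same well before compound.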

| SMILES | hERG current change (%, negative = inhibition) at 10uM |
| --- | --- |
| Cc1cccc(NC(=O)CSc2nc3c(c(=O)[nH]2)CCCC3)c1C | -16% |
| CCOc1ccc(S(=O)(=O)N(CCO)CCO)cc1-c1nc2c(C(C)(C)C)nn(C)c2c(=O)[nH]1 | -11.7% |
| O=C(NCc1ccncc1)c1ccc(NS(=O)(=O)c2ccc(F)cc2)cc1 | -4.87% |
| O=C(c1cc(Cl)cc(Cl)c1)N1CCOCC1 | 12.2% |
| CSc1ccccc1NC(=O)c1ccccn1 | -6.11% |
| COc1cc(C(=O)N2CCN(S(=O)(=O)c3cccs3)CC2)cc(OC)c1C | -12.1% |
| CCOC(=O)C1CCN(Cc2c(F)cccc2Cl)CC1 | -13.7% |
| COc1ccc(NC(=O)CN(C)C(=O)c2cc(-c3ccncc3)nc3ccccc23)cc1 | -41.6% |
| CCN(C(=O)COC(=O)CSc1ccc(C)c(C)c1)C1CCS(=O)(=O)C1 (stereo not drawn) | -49.8% |
| Cc1nn(CC(=O)Nc2ccccn2)c(C)c1Br | 15.3% |
| Cc1sc(NC(=S)NC(=O)c2cccs2)nc1-c1ccc(CC(C)C)cc1 | 6.05% |
| O=C(O)Cc1sc(Nc2cccc3ccccc23)nc1-c1ccccc1 | 7.09% |
| Cc1ccc(C(=O)Nc2cccc(C(F)(F)F)c2)cc1NC(=O)c1ccno1 | -67% |
| CCCCNC(=O)CCCn1c(=O)[nH]c2ccc(Br)cc2c1=O | -12% |
| Cc1cc2nnc(SCC(=O)N3CCCCC3)n2c(N)n1 | 11.7% |
| COc1cccc2cc(C(=O)C3=C(O)C(=O)N(CCN4CCOCC4)C3c3ccc(Cl)cc3)oc12 (stereo not drawn) | 13.6% |
| COc1ccc(N2CCN(C(=O)C(CCSC)N=C3NS(=O)(=O)c4ccccc43)CC2)cc1 (stereo not drawn) | -17.4% |
| COc1ccc(OCCOC(=O)c2nc3nccc(C)n3n2)cc1 | -3.15% |
| Cn1c(CCNC(=O)c2ccco2)nc2ccccc21 | -1.52% |
| Cc1cnc(C(=O)OCC(=O)c2ccc(Br)s2)cn1 | 7.15% |
| CC1(C(=O)O)CCC(C(=O)NNC(=O)c2ccccc2Cl)C1(C)C (stereo not drawn) | -5.75% |
| O=C1NC(=O)C(c2ccc(F)cc2)N1 (stereo not drawn) | 1.36% |
| O=c1c(F)cn(C2CCCO2)c(=O)n1Cc1ccccc1F (stereo not drawn) | 1.34% |

| SMILES | hERG current change (%, negative = inhibition) at 10uM |
| --- | --- |
| C=CCC1(CC=C)CCCN1C(=O)c1cc(COc2ccc(-n3cncn3)cc2)on1 | -46.1% |
| COc1ccc(N(CC(=O)NCCSc2ccccn2)S(=O)(=O)c2ccccc2)cc1OC | -3.38% |
| O=C(NCCN1CCN(c2ccccc2)CC1)c1cccc(Br)c1 | -60.2% |
| COc1ccc(-c2[nH]ncc2CN(C)CC2CCCCO2)cc1F (stereo not drawn) | -30.8% |
| C=CCN(c1ccc(C(=O)NC(C)C)cc1)S(C)(=O)=O | -8.06% |
| CN(C)c1ccc(NS(=O)(=O)c2ccc(Cl)cc2)cc1 | 2.04% |
| CC(C)[C@H](NC(=O)OCc1ccccc1)C(=O)N[C@@H](Cc1c[nH]c2ccccc12)C(=O)O (Cbz-Val-Trp-OH) | 4.95% |
| COC(=O)c1ccc(OCC(O)CN2CCN(C(=O)c3ccco3)CC2)cc1.O=C(O)C(=O)O (stereo not drawn) | -25.3% |
| COc1cccc(N2CCN(C(=O)c3ccc(-c4ccccc4)cc3)CC2)c1 | -49.5% |
| CCCCn1nnc(NC(=O)C(c2ccccc2)c2ccccc2)n1 | 1.18% |
| CN(Cc1ccccc1)C(NC(=O)c1ccco1)C(Cl)(Cl)Cl (stereo not drawn) | -23.9% |
| CCCCC(=O)Nc1ccc(NC(=O)CC)cc1OC | 2.43% |
| Cc1ccc(C2(C)NC(=O)N(CC(=O)Nc3cc(C)on3)C2=O)cc1 (stereo not drawn) | -10.7% |
| Br.COc1ccc(NC2=NCCCCC2)cc1 | 19.5% |
| O=C(Nc1ccc(N2CCN(C(=O)c3ccccc3F)CC2)cc1)c1ncn[nH]1 | -17.4% |
| O=[N+]([O-])c1ccc2c(c1)nc1n2CCN(C2CCCCC2)C1 | -39.3% |
| Cc1ccc(C)c(-n2nnnc2SCC(=O)NCC2CCCO2)c1 (stereo not drawn) | -4.18% |
| COc1cccc(Cn2cc(/C=N/NC(=O)c3cc(O)cc(O)c3)c3ccccc32)c1 | 12.1% |
| CCN1CCN(c2ccc(NC(=O)c3ccc4c(c3)[nH]c(=O)n4Cc3ccc(F)cc3)cc2)CC1 | -4.37% |
| COc1ccc(CONS(=O)(=O)c2ccc(NC(C)=O)cc2)cc1Cl | -29.1% |
| COc1ccc(-c2nc3cc(C)ccn3c2NC(=O)c2ccccc2OC)cc1 | 5.28% |
| COc1ccc(NC(=O)C2CC(=O)n3ncnc3N2)cc1 (stereo not drawn) | 5.39% |
